# Laboratory results published in the supplement of paper PMC8728848.
# Some of the results follow.
# B1: Gal 2 (Canis lupus) (protein)
# chain: MSGKFEVMNMDMKLGGTLKIKGKIAGDADGFVINLGQGSDKLNLHFNPRFHESVIVCNSRNWGQEQRDKHMCFSPGSEVKFTVTFENDGFKVKLPDGHQLTFPNRLGHSHLSYLGVQGGLKVSSFKIE
# Tests used:
# Assay in all cases: glycan array binding signal (z-score within array); higher = stronger binding
# Conditions in all cases: glycan notation: IUPAC condensed, linker removed
# [1] = molecular target: GlcNAc(b1-6)Gal(b1-4)GlcNAc
# Outline: (§1)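 Glycan array data were curated from 3228 arrays in the Consortium for Functional Glycomics database and kept only where the protein sequence was available. Glycan names were converted to IUPAC-condensed notation, and columns mapping to the same glycan were averaged. The binding signal is a within-array Z-score, averaged across arrays of the same protein sequence at different concentrations or buffers and across linkers. Negative Z-scores can be read as non-binding.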
# GlcNAc(b1-6)GalNAc = molecular target: GlcNAc(b1-6)GalNAc
# Outline: as §1
# GlcNAc3Prop(b1-4)GlcNAc = molecular target: GlcNAc3Prop(b1-4)GlcNAc
# Outline: as §1
# [2] = molecular target: GlcNAc6S(b1-3)Gal(b1-4)GlcNAc
# Outline: as §1
# Kdn(a2-3)Gal(b1-3)GalNAc = molecular target: Kdn(a2-3)Gal(b1-3)GalNAc
# Outline: as §1
# Kdn(a2-3)Gal(b1-3)GlcNAc = molecular target: Kdn(a2-3)Gal(b1-3)GlcNAc
# Outline: as §1
# Kdn(a2-3)Gal(b1-4)Glc = molecular target: Kdn(a2-3)Gal(b1-4)Glc
# Outline: as §1
# Kdn(a2-3)Gal(b1-4)GlcNAc = molecular target: Kdn(a2-3)Gal(b1-4)GlcNAc
# Outline: as §1
# [3] = molecular target: Kdn(a2-3)Gal(b1-4)[Fuc(a1-3)]GlcNAc
# Outline: as §1
# Kdn(a2-6)Gal(b1-4)GlcNAc = molecular target: Kdn(a2-6)Gal(b1-4)GlcNAc
# Outline: as §1
# [4] = molecular target: Man(a1-2)Man(a1-2)Man(a1-3)Man
# Outline: as §1
# [5] = molecular target: Man(a1-2)Man(a1-2)Man(a1-6)[Man(a1-3)]Man
# Outline: as §1
# Man(a1-2)Man(a1-3)Man = molecular target: Man(a1-2)Man(a1-3)Man
# Outline: as §1
# [6] = molecular target: Man(a1-2)Man(a1-3)[Man(a1-2)Man(a1-6)]Man
# Outline: as §1
# [7] = molecular target: Man(a1-2)Man(a1-3)[Man(a1-2)Man(a1-6)]Man(a1-6)[Man(a1-2)Man(a1-2)Man(a1-3)]Man
# Outline: as §1
# [8] = molecular target: Man(a1-2)Man(a1-3)[Man(a1-2)Man(a1-6)]Man(a1-6)[Man(a1-2)Man(a1-2)Man(a1-3)]Man(b1-4)GlcNAc(b1-4)GlcNAc
# Outline: as §1
# [9] = molecular target: Man(a1-2)Man(a1-3)[Man(a1-6)]Man(a1-6)[Man(a1-2)Man(a1-3)]Man(b1-4)GlcNAc(b1-4)GlcNAc
# Outline: as §1
# [10] = molecular target: Man(a1-2)Man(a1-6)[Man(a1-3)]Man(a1-6)[Man(a1-2)Man(a1-2)Man(a1-3)]Man
# Outline: as §1
# [11] = molecular target: Man(a1-2)Man(a1-6)[Man(a1-3)]Man(a1-6)[Man(a1-2)Man(a1-2)Man(a1-3)]Man(b1-4)GlcNAc(b1-4)GlcNAc
# Outline: as §1
# Man(a1-3)[Man(a1-6)]Man = molecular target: Man(a1-3)[Man(a1-6)]Man
# Outline: as §1
# [12] = molecular target: Man(a1-3)[Man(a1-6)]Man(a1-6)[Man(a1-2)Man(a1-3)]Man(b1-4)GlcNAc(b1-4)GlcNAc
# Outline: as §1
# [13] = molecular target: Man(a1-3)[Man(a1-6)]Man(a1-6)[Man(a1-3)]Man
# Outline: as §1
# [14] = molecular target: Man(a1-3)[Man(a1-6)]Man(a1-6)[Man(a1-3)]Man(b1-4)GlcNAc(b1-4)GlcNAc
# Outline: as §1
# [15] = molecular target: Man(a1-3)[Man(a1-6)]Man(b1-4)GlcNAc(b1-4)GlcNAc
# Outline: as §1
# Man(a1-6)Man = molecular target: Man(a1-6)Man
# Outline: as §1
# Man(b1-4)GlcNAc = molecular target: Man(b1-4)GlcNAc
# Outline: as §1
# Neu5Ac(a2-3)Gal = molecular target: Neu5Ac(a2-3)Gal
# Outline: as §1
# [16] = molecular target: Neu5Ac(a2-3)Gal(b1-3)GalNAc
# Outline: as §1
# [17] = molecular target: Neu5Ac(a2-3)Gal(b1-3)GalNAc(b1-3)Gal(a1-4)Gal(b1-4)Glc
# Outline: as §1
# [18] = molecular target: Neu5Ac(a2-3)Gal(b1-3)GalNAc(b1-4)[Neu5Ac(a2-3)]Gal(b1-4)Glc
# Outline: as §1
# [19] = molecular target: Neu5Ac(a2-3)Gal(b1-3)GalNAc(b1-4)[Neu5Ac(a2-8)Neu5Ac(a2-3)]Gal(b1-4)Glc
# Outline: as §1
# [20] = molecular target: Neu5Ac(a2-3)Gal(b1-3)GalNAc6S
# Outline: as §1
# [21] = molecular target: Neu5Ac(a2-3)Gal(b1-3)GlcNAc
# Outline: as §1
# [22] = molecular target: Neu5Ac(a2-3)Gal(b1-3)GlcNAc(b1-2)Man(a1-3)[Neu5Ac(a2-3)Gal(b1-3)GlcNAc(b1-2)Man(a1-6)]Man(b1-4)GlcNAc(b1-4)GlcNAc
# Outline: as §1
# [23] = molecular target: Neu5Ac(a2-3)Gal(b1-3)GlcNAc(b1-3)Gal(b1-3)GlcNAc
# Outline: as §1
# [24] = molecular target: Neu5Ac(a2-3)Gal(b1-3)GlcNAc(b1-3)Gal(b1-4)GlcNAc
# Outline: as §1
# [25] = molecular target: Neu5Ac(a2-3)Gal(b1-3)GlcNAc(b1-3)GalNAc
# Outline: as §1
# [26] = molecular target: Neu5Ac(a2-3)Gal(b1-3)GlcNAc6S
# Outline: as §1
# [27] = molecular target: Neu5Ac(a2-3)Gal(b1-3)[Fuc(a1-4)]GlcNAc
# Outline: as §1
# [28] = molecular target: Neu5Ac(a2-3)Gal(b1-3)[Fuc(a1-4)]GlcNAc(b1-3)Gal(b1-3)[Fuc(a1-4)]GlcNAc
# Outline: as §1
# [29] = molecular target: Neu5Ac(a2-3)Gal(b1-3)[Fuc(a1-4)]GlcNAc(b1-3)Gal(b1-4)[Fuc(a1-3)]GlcNAc
# Outline: as §1
# [30] = molecular target: Neu5Ac(a2-3)Gal(b1-3)[Neu5Ac(a2-3)Gal(b1-4)]GlcNAc
# Outline: as §1
# [31] = molecular target: Neu5Ac(a2-3)Gal(b1-3)[Neu5Ac(a2-6)]GalNAc
# Outline: as §1
# Neu5Ac(a2-3)Gal(b1-4)Glc = molecular target: Neu5Ac(a2-3)Gal(b1-4)Glc
# Outline: as §1
# [32] = molecular target: Neu5Ac(a2-3)Gal(b1-4)GlcNAc
# Outline: as §1
binder,measurement,setting,value
B1,glycan array binding signal (z-score),[1],-0.268
same,glycan array binding signal (z-score),GlcNAc(b1-6)GalNAc,0.074
same,glycan array binding signal (z-score),GlcNAc3Prop(b1-4)GlcNAc,-0.333
same,glycan array binding signal (z-score),[2],0.288
same,glycan array binding signal (z-score),Kdn(a2-3)Gal(b1-3)GalNAc,0.163
same,glycan array binding signal (z-score),Kdn(a2-3)Gal(b1-3)GlcNAc,-0.388
same,glycan array binding signal (z-score),Kdn(a2-3)Gal(b1-4)Glc,0.09
same,glycan array binding signal (z-score),Kdn(a2-3)Gal(b1-4)GlcNAc,-0.203
same,glycan array binding signal (z-score),[3],-0.172
same,glycan array binding signal (z-score),Kdn(a2-6)Gal(b1-4)GlcNAc,-0.013
same,glycan array binding signal (z-score),[4],-0.019
same,glycan array binding signal (z-score),[5],-0.081
same,glycan array binding signal (z-score),Man(a1-2)Man(a1-3)Man,-0.115
same,glycan array binding signal (z-score),[6],-0.162
same,glycan array binding signal (z-score),[7],0.426
same,glycan array binding signal (z-score),[8],0.092
same,glycan array binding signal (z-score),[9],-0.735
same,glycan array binding signal (z-score),[10],0.302
same,glycan array binding signal (z-score),[11],-0.463
same,glycan array binding signal (z-score),Man(a1-3)[Man(a1-6)]Man,0.15
same,glycan array binding signal (z-score),[12],-0.345
same,glycan array binding signal (z-score),[13],-0.065
same,glycan array binding signal (z-score),[14],-0.214
same,glycan array binding signal (z-score),[15],-0.061
same,glycan array binding signal (z-score),Man(a1-6)Man,-0.326
same,glycan array binding signal (z-score),Man(b1-4)GlcNAc,-0.139
same,glycan array binding signal (z-score),Neu5Ac(a2-3)Gal,0.689
same,glycan array binding signal (z-score),[16],-0.086
same,glycan array binding signal (z-score),[17],-0.101
same,glycan array binding signal (z-score),[18],-0.014
same,glycan array binding signal (z-score),[19],0.337
same,glycan array binding signal (z-score),[20],-0.111
same,glycan array binding signal (z-score),[21],0.407
same,glycan array binding signal (z-score),[22],0.072
same,glycan array binding signal (z-score),[23],-0.352
same,glycan array binding signal (z-score),[24],0.086
same,glycan array binding signal (z-score),[25],-0.177
same,glycan array binding signal (z-score),[26],-0.175
same,glycan array binding signal (z-score),[27],0.016
same,glycan array binding signal (z-score),[28],0.124
same,glycan array binding signal (z-score),[29],-0.151
same,glycan array binding signal (z-score),[30],-0.369
same,glycan array binding signal (z-score),[31],-0.184
same,glycan array binding signal (z-score),Neu5Ac(a2-3)Gal(b1-4)Glc,0.104
same,glycan array binding signal (z-score),[32],-0.246
